Experimental data as given in article PMC4336329 (PLoS ONE, 2015).
In all, about 310,000 compounds went through this assay and about 2,200 (0.71%) showed an effect of 50% or more. Effects have a minus sign here. The list shows a part of the results.

The compounds below were run against human ether-à-go-go-related gene (hERG) potassium channel (human, UniProt Q12809) (assay: primary screen, population patch clamp on CHO cells stably expressing hERG).
Sequence of human ether-à-go-go-related gene (hERG) potassium channel (Q12809 whole entry, looked up): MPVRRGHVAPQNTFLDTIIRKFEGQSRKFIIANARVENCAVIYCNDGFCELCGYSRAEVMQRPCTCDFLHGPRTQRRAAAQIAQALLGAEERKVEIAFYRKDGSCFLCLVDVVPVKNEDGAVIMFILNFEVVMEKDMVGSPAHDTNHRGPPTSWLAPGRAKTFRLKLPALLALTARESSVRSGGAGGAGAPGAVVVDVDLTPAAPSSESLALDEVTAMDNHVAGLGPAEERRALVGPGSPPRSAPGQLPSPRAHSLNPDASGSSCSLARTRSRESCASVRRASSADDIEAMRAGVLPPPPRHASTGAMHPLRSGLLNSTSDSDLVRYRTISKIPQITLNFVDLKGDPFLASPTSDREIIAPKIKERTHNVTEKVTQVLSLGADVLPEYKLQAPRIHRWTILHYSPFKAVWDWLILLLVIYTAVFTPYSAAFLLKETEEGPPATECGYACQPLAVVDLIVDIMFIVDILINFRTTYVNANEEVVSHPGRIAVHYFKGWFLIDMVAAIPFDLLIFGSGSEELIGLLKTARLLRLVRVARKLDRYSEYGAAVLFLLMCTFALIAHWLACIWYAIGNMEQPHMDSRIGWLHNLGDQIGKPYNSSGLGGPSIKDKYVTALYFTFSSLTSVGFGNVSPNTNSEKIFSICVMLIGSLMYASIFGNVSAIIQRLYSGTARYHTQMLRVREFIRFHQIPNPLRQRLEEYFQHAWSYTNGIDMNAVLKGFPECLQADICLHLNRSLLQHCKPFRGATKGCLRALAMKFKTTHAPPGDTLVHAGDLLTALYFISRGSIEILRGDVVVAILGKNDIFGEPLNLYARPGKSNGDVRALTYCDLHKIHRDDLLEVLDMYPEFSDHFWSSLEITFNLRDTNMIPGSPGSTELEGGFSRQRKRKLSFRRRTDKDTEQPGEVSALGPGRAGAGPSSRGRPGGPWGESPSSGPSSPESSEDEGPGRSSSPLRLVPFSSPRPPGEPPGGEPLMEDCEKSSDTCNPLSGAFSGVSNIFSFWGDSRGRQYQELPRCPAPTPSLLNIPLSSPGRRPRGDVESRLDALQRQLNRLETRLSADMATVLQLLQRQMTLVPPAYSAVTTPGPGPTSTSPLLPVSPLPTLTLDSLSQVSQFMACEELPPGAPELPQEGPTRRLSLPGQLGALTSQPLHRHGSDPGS

SMILES | hERG current change (%, negative = inhibition) at 1uM [%]
CC(C)Cc1ccccc1S(N)(=O)=O | 10.3
Cc1cc2ncc(-c3ccc(Cl)cc3)c(N)n2n1 | -2.52
COc1ccc(N(CC(=O)NCc2ccc(F)cc2)C(=O)c2snc(C(N)=O)c2N)cc1OC | 14.2
Cc1cccc(N2CCN(C(=O)CCC(=O)N3Cc4ccccc4Oc4ncccc43)CC2)c1C | 9.18
Cc1oc2cc3oc(=O)ccc3cc2c1C | 11.6
COCC(=O)Nc1ccc(C(N)=O)cc1 | -3.76
Cc1ccc(C)c(NC(=O)CSc2nc3c(c(=O)n2C)SC(C)C3)c1 (stereo not drawn) | 12
O=Cc1cn(-c2ccccc2)nc1-c1cc2cc(O)ccc2oc1=O | 12
O=C(N/N=C/c1ccc2c(c1)OCO2)c1sc2cccc(Cl)c2c1Cl | 5.71
COc1ccc2nc(C)cc(Nc3ccccc3O)c2c1.Cl | 5.58
O=C(COc1ccc(S(=O)(=O)N2CCOCC2)cc1)Nc1ccccc1Cl | 7.64
COc1ccc(CC(=O)Nc2cc(=O)n(C)c(=O)n2C)cc1OC | 15.5
COC(=O)c1cc(NS(=O)(=O)c2ccc(NC(C)=O)cc2)cc(C(=O)OC)c1 | 2.46
Cc1cc(=O)oc2c(C)c(OC(C)C(=O)NC3CCN(Cc4ccccc4)CC3)ccc12 (stereo not drawn) | -2.18
CCOc1ccc2c(c1)sc(N)[n+]2Cc1cc(C)cc2cccnc12.[Br-] | -56.2
CCN(CC)CCNC(=O)Cn1c(=O)c2cccn2c2ccc(F)cc21 | 12.5
CC(/C=N/NC(=O)COc1ccccc1C)=N\NC(=O)COc1ccccc1C | 24.2
CCOc1ccc(NC(=O)C2C3C=CC4(O3)C2C(=O)N(Cc2cccnc2)C4C(=O)NC2CCCCC2)cc1 (stereo not drawn) | 11.9
CC1(C)SC(=S)N(/N=C/c2ccccc2)C1N(O)C(=O)Nc1ccc([N+](=O)[O-])cc1 (stereo not drawn) | 11.6
CCc1cccc(NC(=O)C2CCCN2C(=O)Nc2ccc(C)cc2)c1 (stereo not drawn) | 11.1
COc1ccc(C(CNC(=O)c2cc3c(s2)CCCC3)N2CCOCC2)cc1 (stereo not drawn) | 1.79
Cc1cccc(C)c1C(OCCN(C)C)C1CCCCC1.O=C(O)C(=O)O (stereo not drawn) | 2.2
CCOC(=O)c1cccc(NC(=S)NC(=O)c2cccnc2)c1 | 9.06
CC1(C)Oc2ccc(C(=O)N3CCCC3)cc2N(CC(=O)NCc2ccccc2)C1=O | 2.22
